Assay results reported in PubChem BioAssay AID485341 (National Center for Advancing Translational Sciences (NCATS), 2010).
In all, about 330,000 compounds went through this assay and about 1,700 (0.52%) were called active. This list was built around the results that the source calls inconclusive (neither active nor inactive); the mix of calls is not that of the screen. Calls come from the whole dose curve; as a rule, active = well fitted inhibition curve with a large enough effect; inconclusive = small, poorly fitted or top-dose-only effect; inactive = no such curve, though single readings can be large or run the other way. Potencies beside an inconclusive call are fits to weak or partial responses and may not hold up. A structure can be active in one record and inactive in another. Peptide text beside a SMILES is read from it. * marks the point of attachment. Boc = CC(C)(C)OC(=O)*; Bn = c1ccc(C*)cc1

Each compound was assayed against Beta-lactamase (Escherichia coli (strain K12)) (UniProt P00811) (assay: qHTS Inhibitors of AmpC Beta-Lactamase (assay without detergent)). Details: AmpC nitrocefin hydrolysis, absorbance 480 nm, 0.0001% Triton; series mostly up to 57.1 µM.
Sequence of UniProt P00811 (P00811 whole entry, looked up): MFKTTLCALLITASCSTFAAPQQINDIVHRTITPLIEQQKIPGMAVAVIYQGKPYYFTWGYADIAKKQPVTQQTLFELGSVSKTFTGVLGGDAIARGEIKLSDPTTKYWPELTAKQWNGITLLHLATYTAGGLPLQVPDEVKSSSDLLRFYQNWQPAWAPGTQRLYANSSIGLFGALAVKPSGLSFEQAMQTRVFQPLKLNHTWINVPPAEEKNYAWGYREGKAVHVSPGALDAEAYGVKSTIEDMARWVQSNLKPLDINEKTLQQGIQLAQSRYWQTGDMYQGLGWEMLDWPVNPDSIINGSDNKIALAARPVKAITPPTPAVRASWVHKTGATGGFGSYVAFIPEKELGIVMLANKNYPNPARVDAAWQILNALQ
Procedure, shortened: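 20 mM phosphate pH 7.0 + 0.01% (detergent screen) or 0.0001% Triton X-100; 5.3 nM AmpC reagent; cpd preinc 15 min RT; nitrocefin (800 uM stock) to start; A480 q20 s × 4 min; Activity was normalised to no-enzyme and no-compound control wells.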
Note: nearly all actives have a fitted effect of over 20% in size.
Potency is the fitted concentration of half-maximal effect; tags give direction and shape of the fitted curve.

Compound | Potency
CCOc1ccc(-n2nc3c(SCCN4CCCC4)nnc(C)c3c2C)cc1 | inactive
Cc1ccc(N/N=C(\C#N)C(N)=S)c(C)c1 | active: 3.55 µM
CCN(c1ccccc1)S(=O)(=O)c1ccc(OC)c(NC(=O)CCc2nc3ccccc3c(=O)[nH]2)c1 | active: 35.5 µM
NC(=O)c1cc(-c2ccccc2)nc(N2CCOCC2)n1 | inconclusive: 8.91 µM [inhibitor, single point]
COc1ccc(OC)c2sc(NC(=O)c3ccc(S(=O)(=O)N4CCOCC4)cc3)nc12 | active: 7.08 µM
N#CCC(=O)Nc1ccc(C(=O)OCC(=O)NCc2ccc3c(c2)OCO3)cc1 | inconclusive: 31.6 µM [inhibitor, single point]
Cc1ccc(-c2csc(NC(=O)Cc3ccc(F)cc3)n2)o1 | inconclusive: 15.8 µM [inhibitor, partial curve]
Cc1ccc(OCc2ccc(C(=O)Nc3ccc(C(N)=O)cc3)o2)c([N+](=O)[O-])c1 | inactive
O=C(Nc1sc2c(c1C(=O)c1ccc(Cl)cc1)CCCC2)c1cccnc1 | inconclusive: 6.31 µM [inhibitor, single point]
COc1ccccc1N1CCN(C(c2cccs2)C(C)NS(=O)(=O)c2ccccc2)CC1 (centres undefined) | inconclusive: 0.355 µM [inhibitor, full curve, poor fit]
O=C(CCN=C1NS(=O)(=O)c2ccccc21)OCC(=O)c1ccc(F)c(F)c1 | inconclusive: 35.5 µM [inhibitor, single point]
CCc1nc(SCC(=O)NCc2ccc(F)cc2)c2c(=O)n(C)c(=O)n(C)c2n1 | active: 2.51 µM
N#CC1=C(SCc2ccc(C#N)cc2)N=C(N)C(c2nc(-c3ccccc3)cs2)C12CCCCC2 (centres undefined) | inconclusive: 4.47 µM [inhibitor, partial curve]
N#CC1=C(SCC(=O)NCc2ccccc2)NC(=O)CC1c1ccco1 (centres undefined) | inconclusive: 1.26 µM [inhibitor, partial curve, poor fit]
O=C1N[C@@H](Cc2ccccc2)C(=O)N2CCC[C@@H]12 | inactive
CN(c1ccccc1)S(=O)(=O)c1cccc(NC(=O)C2=NN(c3ccccc3)C(=O)CC2)c1 | inactive
CCc1c(C(=O)N/N=C/c2cn[nH]c2-c2ccc(F)cc2)csc1C | active: 15.8 µM
O=C(CN(C(=O)CCC(=O)Nc1nccs1)c1ccc2c(c1)OCO2)NCC1CCCO1 (centres undefined) | inconclusive: 6.31 µM [inhibitor, single point]
CC1(O)C[C@]2(C)N(O)C3CCCC[C@@H]3N2O1 (some centres undefined) | inconclusive: 7.94 µM [inhibitor, single point]
CNc1nc(Cl)nc(Nc2ccccc2)n1 | inactive
O=C(CCCN1C(=O)/C(=C/c2cccc(Br)c2)SC1=S)Nc1cccnc1 | inconclusive: 2.24 µM [inhibitor, full curve, poor fit]
O=C(/C=C\c1ccco1)c1ccc(NC(=O)c2ccco2)cc1 | active: 6.31 µM
C=CCN(c1ccccc1)S(=O)(=O)c1cccc(C(=O)Oc2ccc3c(C)cc(=O)oc3c2)c1 | inconclusive: 3.55 µM [inhibitor, full curve, poor fit]

Compound | Potency
CCc1cccc(C)c1NS(=O)(=O)Cc1ccccc1 | inactive
COc1ccc(C(O)P(=O)(OCC(C)C)c2ccc(N(C)C)cc2)c(OC)c1 (centres undefined) | inactive
CCOC(=O)c1ccc(NC(=O)NCc2ccccc2)cc1 | inconclusive: 8.91 µM [inhibitor, partial curve]
CCc1ccc(C2CC(c3ccc(F)cc3)Nc3nc(N)nn32)cc1 (centres undefined) | active: 4.47 µM
CCOC(=O)Cn1c(=O)oc2cc(S(=O)(=O)NCCc3ccc(C)cc3)ccc21 | active: 10 µM
CC1CCC(NC(=O)C2c3ccccc3C(=O)N2Cc2cccs2)CC1 (centres undefined) | inactive
O=C(NCCc1ccccc1)c1ccc2c(c1)N(Cc1ccccc1)C(=O)CS2=O (centres undefined) | active: 5.01 µM
CC1C/C(=N\NC(=O)c2ccc(NS(=O)(=O)c3ccc(Br)cc3)cc2)CC(C)(C)C1 (centres undefined) | inconclusive: 39.8 µM [inhibitor, single point]
Cc1cccc(C(=O)NCC(=O)N2CCN(S(=O)(=O)c3cc(C)ccc3C)CC2)c1 | inconclusive: 39.8 µM [inhibitor, single point]
O=C(O)c1cc(S(=O)(=O)Nc2ccc(OCc3ccccc3)cc2)ccc1Br | inconclusive: 22.4 µM [inhibitor, partial curve]
O=C1Nc2ccccc2Oc2cc(Oc3ccccc3)ccc21 | active: 10 µM
O=c1[nH]c(=S)n(C2CC2)c(O)c1/C=N/Nc1ccccc1 | active: 12.6 µM
CCOc1ccccc1NC(=O)c1cccc(S(=O)(=O)N(Cc2ccccc2)c2ccccc2OC)c1 | inconclusive: 3.98 µM [inhibitor, full curve, poor fit]
CC(=O)Nc1ccc(N2N=C(C)C(N=Nc3ccccc3)C2=O)cc1 (centres undefined) | inactive
Cc1ccc(S(=O)(=O)N2CCCCC2)cc1NC(=O)CSc1ccc2c(c1)OCCO2 | inconclusive: 1.12 µM [inhibitor, full curve, poor fit]
Cc1nnc(SCC2=C(C(=O)O)N3C(=O)C(NC(=O)c4cccc(F)c4F)C3SC2)s1 (centres undefined) | inactive
O=C(O)c1cc(O)c2c(c1)[C@H]([C@H]1c3cc(C(=O)O)cc(O)c3C(=O)c3c(O[C@@H]4O[C@H](CO)[C@@H](O)[C@H](O)[C@H]4O)cccc31)c1cccc(OC3O[C@H](CO)[C@@H](O)[C@H](O)[C@H]3O)c1C2=O (some centres undefined) | active: 1 µM
CC(C)CC(NC(=O)C(Cc1ccc(OCc2ccccc2)cc1)NC(=O)OC(C)(C)C)C(N)=O (centres undefined) (Boc-Tyr(Bn)-Leu-NH2; configuration not given here) | active: 7.08 µM
Cc1cc(C)cc(NC(=O)C2(c3ccccc3)CC2(Cl)Cl)c1 (centres undefined) | inconclusive: 20 µM [inhibitor, single point]
CC(Oc1cc2oc(=O)c3c(c2cc1Cl)CCC3)C(=O)NCCN1CCOCC1 (centres undefined) | inactive
COc1cc(NC(=O)C2CC(=O)NC3=C2C(=O)CC(C)(C)C3)c(OC)cc1Cl (centres undefined) | inactive
CCCCNC1C(CC)C(CCC)C(C#N)(C#N)C1(C#N)C#N (centres undefined) | inconclusive: 3.55 µM [inhibitor, single point]
CC(C)(C)c1ccc(C(=O)Nc2ccc([N+](=O)[O-])cn2)cc1 | inactive

Compound | Potency
CCOC(=O)c1[nH]c2c(c1C)C(=O)CC(c1ccc(F)cc1)C2 (centres undefined) | inconclusive: 0.631 µM [inhibitor, full curve, poor fit]
COc1ccc(NC(=O)CC(C)(C)C)c([N+](=O)[O-])c1 | inconclusive: 5.01 µM [inhibitor, single point]
Cc1onc(-c2c(Cl)cccc2Cl)c1C(=O)N[C@@H]1C(=O)N2[C@@H]1SC(C)(C)[C@@H]2C(=O)O | active: 0.1 µM
COc1ccccc1OCCNC(=O)C1CC(=O)N(c2ccc3c(c2)OCCO3)C1 (centres undefined) | inconclusive: 39.8 µM [inhibitor, single point]
CC(C)C(=O)Nc1cccc(C(=O)Nc2nnc(C(C)C)s2)c1 | inactive
Cc1[nH]n(-c2nc(-c3cccc([N+](=O)[O-])c3)cs2)c(=O)c1C | inconclusive: 39.8 µM [inhibitor, single point]
Cc1ccccc1CS(=O)(=O)c1nnc([C@H](Cc2ccccc2)NC(=O)OC(C)(C)C)o1 | active: 12.6 µM
O=C(O)c1ccc(N/N=C/C2=C(N3CCOCC3)C(=C\c3ccccc3)/CC2)cc1 | inconclusive: 1.41 µM [inhibitor, full curve, poor fit]
N#C/C(=N\Nc1cccc([N+](=O)[O-])c1)C(=O)c1ccc(Br)cc1 | inconclusive: 15.8 µM [inhibitor, partial curve]
COc1ccc2c(CC(=O)OCC(=O)Nc3ccc(S(N)(=O)=O)cc3)coc2c1 | active: 10 µM
COc1ccc(CN2C(=O)c3ccccc3C(/C=N\OCc3ccc(C)cc3)C2=O)cc1 (centres undefined) | inconclusive: 6.31 µM [inhibitor, single point]
COc1ccc(S(=O)(=O)NC(CC(=O)NCc2ccccc2OC)c2ccco2)cc1 (centres undefined) | active: 0.316 µM
O=C(Nc1ccc(Cl)cn1)c1cccc2c(Br)cccc12 | active: 20 µM
CC1CCCC2(C1)NC(=S)N(c1ccccc1)N2 (centres undefined) | inactive
CC(=O)Nc1cccc(-c2nc3ccccc3c(=O)o2)c1 | inconclusive: 8.91 µM [inhibitor, partial curve, poor fit]
Cc1ccnc(NC(=O)c2cccc(S(=O)(=O)N3CCOCC3)c2)c1 | inconclusive: 35.5 µM [inhibitor, single point]
Cc1nn(Cc2ccc(Cl)cc2Cl)c(Cl)c1/C=N/NC(=O)CNc1cccc(C(F)(F)F)c1 | inactive
COc1ccc(CN2C(=O)c3ccccc3C(/C=N/OCc3ccc(Cl)cc3)C2=O)cc1 (centres undefined) | inconclusive: 28.2 µM [inhibitor, single point]
Cc1ccc(-c2nn(-c3ccccc3)cc2/C=N/n2c(-c3cccs3)n[nH]c2=S)cc1 | inconclusive: 39.8 µM [inhibitor, single point]
CC(=O)n1cc(Nc2ccccc2C(=O)O)c2ccccc21 | inactive
Cc1ccccc1C(=O)Nc1ccc(C(=O)N/N=C/c2ccc(O)c(Br)c2)cc1 | inconclusive: 1.78 µM [inhibitor, full curve, poor fit]
Cc1cc(C(=O)CSc2nnc(-c3cccc(F)c3)n2N)c(C)n1Cc1ccc2c(c1)OCO2 | inactive
C=CCNC(=O)CC(=O)N/N=C/c1ccc(C(=O)OC)cc1 | inconclusive: 6.31 µM [inhibitor, single point]
